The supplement of paper PMC3334620
In all, about 33,000 sequences were measured (“E-score (-0.5 to 0.5)”: median about -0.013, highest 2% from about 0.3 on). The list shows a part of the results.

Biological target: T1, Msn1 (UniProt P22148)
T1 sequence: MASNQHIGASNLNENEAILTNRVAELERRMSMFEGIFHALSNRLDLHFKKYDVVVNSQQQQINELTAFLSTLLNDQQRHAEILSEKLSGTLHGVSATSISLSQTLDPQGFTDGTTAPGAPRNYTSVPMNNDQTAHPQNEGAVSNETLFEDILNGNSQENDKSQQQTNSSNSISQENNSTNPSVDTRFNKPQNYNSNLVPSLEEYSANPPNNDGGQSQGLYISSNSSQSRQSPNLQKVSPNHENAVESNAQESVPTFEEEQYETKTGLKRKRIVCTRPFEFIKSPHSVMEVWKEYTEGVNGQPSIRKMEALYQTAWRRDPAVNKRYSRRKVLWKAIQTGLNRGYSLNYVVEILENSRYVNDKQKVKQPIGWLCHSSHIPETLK
Test: PBM E-score (8-mer binding enrichment) (E-score (-0.5 to 0.5)); higher = stronger / more preferred TF binding; most listed sequences are background and not binding sites
Conditions: protein concentration: 200 nM; construct: GST-full length
Method: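 Universal 'all 10-mer' protein binding microarrays (Agilent AMADID 015681) probed with GST-tagged S. cerevisiae TFs (full-length or DBD) made by in vitro transcription/translation (PURExpress), about 100-200 nM. Bound TF was detected with fluorescent anti-GST. Each ungapped 8-mer (which stands for itself and its reverse complement) is scored by the PBM enrichment score (E-score), a modified Wilcoxon-Mann-Whitney statistic from -0.5 to +0.5, computed with the Universal PBM Analysis Suite. Scale: above 0.35 generally sequence-specific binding.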

Sequence	PBM E-score
ATAGTAGC	0.0535
CGTGGCCA	-0.173
GGAAGGCA	-0.0964
CCATTTTA	0.259
AATGCGCC	0.00012
AAACAGGA	0.157
GCCAACGC	0.00975
GATCAATC	-0.132
CAGCGCTG	0.0343
CCGTAGGA	-0.122
CTACTAGA	-0.0895
CCCTTTAG	-0.0917
CTAACCAG	-0.108
CAAATATG	0.0934
AAGACGAA	0.148
TAATGCAA	-0.0272
ATCTCTCC	-0.195
CCGACAGC	-0.104
ATACGAAG	-0.00167
AAATAAAC	0.169
GACCGCCC	-0.316
CTACCGTA	-0.056
ACCGTTTC	-0.0397
AAGTCTGT	0.232
CGGGTTGC	-0.216

Sequence	PBM E-score
AGGTGTAT	-0.0133
ATGATATA	0.0391
CTACTCCC	-0.042
CGTAAACG	-0.219
CTTGGGAC	0.264
ATAGCACA	-0.0389
ACGGTTAC	-0.131
CCTTAACA	-0.016
AGGGGATA	-0.137
CCGCAATC	-0.0118
AGAGTCTC	-0.0717
ATTTAGTG	0.213
TAATAGCA	-0.169
CGATGAAG	0.0277
ATCTTCCG	0.188
ACCGATCT	-0.0846
AAGCATCG	-0.0127
AGACGAAT	0.205
ATTTCTTA	0.145
GCCCCCGA	-0.312
ACTGTTGG	-0.118
ATACAAAT	0.335
GCTACCTA	-0.134
GTTCCCTA	-0.0341
ACTACGAA	0.0645

Sequence	PBM E-score
GTGATGCA	-0.0684
TACGCGTA	0.0979
GTGGAGAA	-0.156
CCTTCGCA	-0.164
CCTGGAAA	0.128
CGGGTTGA	-0.255
AAACGGCC	0.0281
CTCAGCAC	-0.152
CACCAGCA	-0.124
ACGCAACA	-0.0272
GATCACCA	-0.0747
CCGGGGTC	-0.153
ATCAAGGC	-0.0496
ATGGCTGG	-0.202
ACATCCGT	0.149
CGCATGAG	-0.143
AACGTATA	-0.0249
ATTCGTCG	0.0922
ATTACAAT	0.155
TGGTGTAA	-0.121
AAACTACG	0.0553
AACTAAAA	0.127
CACTCCCA	-0.155
CGGAAAAC	0.0672
CATAGATC	0.0219

Sequence	PBM E-score
CCCCTCGC	-0.313
AATGCAGA	-0.069
CGTTCGAA	0.206
GCTGATAA	0.0332
GGACTACA	-0.00935
TAAAGCGA	0.045
ATGGGTAC	0.139
CACGATGC	-0.138
AGTTTAGG	-0.108
AACCATCT	-0.246
CTTCGTCC	-0.0108
GAGCGGTA	-0.156
ACAAAAGA	0.27
CGTCCGTC	-0.145
AGTCCGCA	0.00745
TCTTGTCA	0.238
AACGTCCG	0.0575
GATCACTA	-0.0238
CGATAATA	0.0341
TAAATTTA	0.228
CTCGTCAG	0.00059
ACATGCCA	0.15
CCGCTCTC	-0.318
ACCCAGAA	0.171
AAATTAGG	0.198

Sequence	PBM E-score
AGGACTAC	-0.122
AATAATTC	0.137
ATCCCTGC	-0.24
ATAATGAA	0.193
AAGAGTCC	-0.0838
ATTTAGGA	0.192
CAGGCACC	-0.189
GCCTCTGA	-0.252
CGCCTTGC	-0.0458
AGGATTTG	0.0283
TGACGTAA	-0.0403
ATAGCAGG	0.0376
CGCTGTAG	-0.0792
AACTCAGG	0.0371
CGTCTTAG	-0.101
AGGAGATA	-0.0904
GGGCCGTA	-0.23
GACCAGAC	-0.00479
ACGCGGAG	-0.118
CGGTCCCC	-0.169
GCTGTAAA	-0.0739
ATCGCAGC	0.134
CCGGCAGC	-0.105
AGGCTCCG	0.0964
ATACACAA	-0.0056

Sequence	PBM E-score
AAACGGGG	0.0857
CGTCTGGC	0.0411
CTACGCAG	-0.12
CACCAACA	-0.218
CATCTGTA	0.0231
AGTGGCTC	-0.158
AAGAACTA	0.0515
AGGTACAG	0.00868
TAGAAACA	0.0543
GATATTGA	0.0768
TCGAGTCA	-0.00232
GTCGCCAA	-0.146
GAATTTAA	0.0218
TCACAACA	0.158
CCGCCTGC	-0.203
CCACTCAA	-0.0179
ATATGACA	0.304
ATGTTGGG	-0.153
CATGGCGA	0.0998
CTACCACA	-0.181
TACAGCAA	0.00838
AACCCTTA	0.0341
CGGGTTCC	-0.143
AACTGAAC	-0.0479
AGGAAGGA	-0.311

Sequence	PBM E-score
CATAAAAC	0.096
CCAGCTGA	0.0261
GGGGGAGA	-0.263
GCTAGGCA	-0.157
ACACCTTC	0.0993
ATTCGACA	-0.00217
AGGACGGC	-0.242
AGCCGCGG	0.064
GTGGCGAA	-9e-05
GAACAGCA	-0.0355
ACAGTCGT	-0.0698
CCGAGGAC	0.256
GAAACGTA	0.0601
ATGACAAC	0.311
AAGCGACT	-0.0838
GCTCAACA	-0.0111
ACTTGCCT	-0.136
CACGAAGC	0.00593
GATGCGAC	-0.109
GTTTCCCA	-0.0664
AAAATTCC	0.158
CGCGGCAC	0.0728
AGTTCCGA	0.0704
ACTTCGTC	0.0916
GCATTTGA	0.051

Sequence	PBM E-score
ACGGGGTA	-0.162
CCGACTTC	-0.163
TGCATAAA	0.18
AAGACTCT	0.123
GGTTGTCA	0.0708
AGGACCTC	0.0644
CTAGGACA	0.489
ACAATACT	0.325
AAGCTTCA	-0.0384
CCTATAGG	-0.157
CTTGCTGA	-0.166
CACCGCCC	-0.12
CGAGTGTA	-0.00181
CGCGAGTC	-0.0435
ACACGGAT	0.17
GCAAACCC	-0.225
GTAAGGGA	0.107
AAACGGGT	0.104
CTTAATCA	0.0521
ACGACATA	0.319
AACGTTGC	-0.0867
AGCAGCGA	-0.0353
GCGCGCCC	-0.0275
GCGCACTA	0.0555
CTACAACA	0.0452

Sequence	PBM E-score
ACTATTGC	-0.0897
AAGTGAAA	0.119
ATAGACGA	0.0929
CCATGAAG	0.0685
CTAGCCCA	-0.156
ATCAGCTA	-0.0929
CGCTCACA	-0.16
AGGACCTG	-0.134
AGTTCAGA	-0.0982
AGGATGTC	0.398
GAAACATA	-0.0331
CTGGCGGA	-0.218
CGATGACA	0.314
ACAATAGC	0.00407
GTGCGGCA	-0.0318
CCGTCTGA	-0.188
CCGTTTGA	0.0322
ACTTAAGA	0.195
ACGTTGGG	-0.00912
